Measured values: PubChem BioAssay AID624418 (National Center for Advancing Translational Sciences (NCATS), 2012)
Hit rate of the full screen: of about 410,000 compounds, about 530 (0.13%) were called active. This list was built around the results that the source calls inconclusive (neither active nor inactive); the mix of calls is not that of the screen. Calls come from the whole dose curve; as a rule, active = well fitted inhibition curve with a large enough effect; inconclusive = small, poorly fitted or top-dose-only effect, or another doubt; inactive = no such curve, though single readings can be large or run the other way. Potencies beside an inconclusive call are fits to weak or partial responses and may not hold up.

assay: qHTS of GLP-1 Receptor Inverse Agonists: Cytotox Screen; conditions: HEK293 cAMP-luciferase reporter cells, luminescence, 24 h; activity change, negative = inhibition: at 38.3 µM (top of the series) unless noted
In short: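 MLSMR compounds, 24 hr on cells at 37 deg C/5% CO2; luminescence after luciferase reagent (12 min RT). Inhibition counted as the undesired cytotoxic outcome.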
% is set by controls: 0 for no effect and ±100 for the full control effect; potency is the fitted concentration of half-maximal effect.

Row | SMILES | Potency | activity change, negative = inhibition
1 | Cc1ccc2sc(N(CCCN(C)C)C(=O)c3ccc(S(=O)(=O)N(C)Cc4ccccc4)cc3)nc2c1C | inconclusive: 11.2 µM [inhibitor, single point] | 
2 | CCOc1ccc(C(=O)Nc2cc(-c3ccccc3)no2)cc1 |  | inactive: -7.56%
3 | COc1ccc(-c2nnc(NC(=O)c3cc(Cl)ccc3Cl)o2)cc1 | inconclusive: 8.91 µM [inhibitor, partial curve, poor fit] | 
4 | O=C(CSc1cccc[n+]1[O-])Nc1c(Br)cc([N+](=O)[O-])cc1Br |  | inactive: -4.37%
5 | COc1ccc(C(=O)/C=C2/C(=O)Nc3ccccc32)c(OC)c1 | active: 10 µM | 
6 | CCOc1ccc(C(c2c(NC(=O)c3ccccc3)sc(C)c2C)N2CCN(CCO)CC2)cc1 (centres undefined) | inconclusive: 28.2 µM [inhibitor, single point] | 
7 | Cc1ccsc1/C=N/Nc1ccc(C(=O)O)cc1 |  | inactive: 2.25%
8 | CC(=O)c1ccc(OCC(=O)OCC(=O)c2ccc(S(=O)(=O)N3CCCCC3)cc2)cc1 |  | inactive: 4.84%
9 | COC(=O)c1c(C)sc(-c2c(-c3ccc(F)cc3)[nH]c3[nH]c(=O)[nH]c(=O)c23)c1O |  | inactive: -1.37%
10 | C/C(=N\NC(=S)NCc1ccccc1)c1ccccc1F | inconclusive: 22.4 µM [inhibitor, single point] | 
11 | O=S(=O)(c1ccc(Br)cc1)c1nc(-c2ccco2)oc1SCc1ccccc1F |  | inactive: 16.9%
12 | Cc1nc(NC(=O)c2ccccc2)sc1-c1csc(NCc2ccco2)n1 | inconclusive: 22.4 µM [inhibitor, single point] | 
13 | COc1ccccc1-n1cnc2cc(NCc3ccccn3)ccc21 | inconclusive: 28.2 µM [inhibitor, single point] | 
14 | CN(Cc1ccccc1)CC(O)COc1ccc(CNCCOc2cccnc2)cc1 (centres undefined) | inconclusive: 7.94 µM [inhibitor, partial curve, poor fit] | 
15 | COc1ccc(NC(=O)C2=C(C)Nc3c(C(=O)Nc4ccc(C)cc4)cnn3C2c2cccc(Cl)c2)cc1 (centres undefined) |  | inactive: -1.06%
16 | CCCCN(CC)C(=O)c1c[nH]c2ccc(S(=O)(=O)Nc3cccc(OC)c3)cc2c1=O |  | inactive: 6.62%
17 | CCN1CCN(c2cc(C)c3cc(NC(=O)CCC(=O)N4CCN(c5ccccc5)CC4)ccc3n2)CC1 | inconclusive: 22.4 µM [inhibitor, single point] | 
18 | COc1cc(OC)cc(-c2cc3cc4c(cc3cn2)OCO4)c1 | inconclusive: 2.82 µM [inhibitor, full curve] | 
19 | Cc1nc(NCC(c2ccccc2)N(C)C)c2c(C)c(C)sc2n1 (centres undefined) | inconclusive: 28.2 µM [inhibitor, single point] | 
20 | Cc1ccc(-c2ccc(=O)n(CC(=O)Nc3ccc(C(C)C)cc3)n2)cc1 |  | inactive: -5.21%
21 | CSc1cccc(NC(=S)NN(C)C)c1 | inconclusive: 28.2 µM [inhibitor, single point] | 
22 | Cc1nc2c(F)c(F)c(C(F)(F)F)c(F)c2[nH]1 | inconclusive: 10 µM [inhibitor, partial curve, poor fit] | 

Row | SMILES | Potency | activity change, negative = inhibition
23 | CCC(NC(=O)C1(C)CC1(Br)Br)c1ccc(C)cc1 (centres undefined) |  | inactive: -2.34%
24 | O=C(Nc1nccs1)C1CCN(S(=O)(=O)c2c(Cl)cccc2Cl)CC1 | inconclusive: 4.47 µM [inhibitor, partial curve] | 
25 | COc1cc(/C=N/NC(N)=S)ccc1OC(=O)c1ccc(C)cc1 | inconclusive: 28.2 µM [inhibitor, single point] | 
26 | N=C(N)SCc1nc2ccccn2c1Br | inconclusive: 22.4 µM [inhibitor, single point] | 
27 | CCOCCCNC(=O)C(c1ccccc1)N(Cc1ccc2c(c1)OCO2)C(=O)c1ccccc1O (centres undefined) | inconclusive: 10 µM [inhibitor, single point] | 
28 | O=C(/C=C/c1c(F)cccc1Cl)c1ccc(O)cc1 | inconclusive: 0.708 µM [inhibitor, full curve, poor fit] | 
29 | O=C1c2ccccc2-c2onc3c(N4CCN(CCO)CC4)cc(N4CCN(C(=O)c5ccco5)CC4)c1c23 | inconclusive: 2.82 µM [inhibitor, full curve, poor fit] | 
30 | CC(=O)Nc1cccc(-c2cc(NC=O)c3ncc(-c4ccc(F)c(Cl)c4)n3c2)c1 | inconclusive: 31.6 µM [inhibitor, single point] | 
31 | CCc1nc2ccc(C(=O)N3CCCCC3)cn2c1N(CCC(C)C)CCN(C)C |  | inactive: -4.02%
32 | O=C(CN1CCCN(Cc2ccc(F)cc2Cl)C1=O)NC1CCCCCC1 |  | inactive: -2.42%
33 | COC(=O)c1c(NC(=O)c2ccccc2[N+](=O)[O-])sc2c1CC(C)(C)NC2(C)C | inconclusive: 12.6 µM [inhibitor, single point] | 
34 | CCOc1cc(CN2CCN(CCOCCO)CC2)ccc1OC | inconclusive: 28.2 µM [inhibitor, single point] | 
35 | CC(=O)c1ccc(N2CCN(C(=O)c3cc(-c4cccnc4)nc4ccc(Br)cc34)CC2)cc1 | inconclusive: 31.6 µM [inhibitor, single point] | 
36 | Cc1cc(-n2c(SCC(=O)Nc3ccc(Br)cc3)nc3n[nH]c(C)c3c2=N)ccc1Cl | inconclusive: 31.6 µM [inhibitor, partial curve, poor fit] | 
37 | Cc1cnc(NC(=O)CCc2ccccc2)s1 | inconclusive: 3.55 µM [inhibitor, partial curve] | 
38 | CCOc1ccc(CCNC(=O)COC(=O)c2ccc(C)s2)cc1OCC | inconclusive: 3.55 µM [inhibitor, full curve] | 
39 | Cc1ccc(S(=O)(=O)N(C)C)cc1NC(=S)NC1CCCC(C)C1C (centres undefined) | inconclusive: 15.8 µM [inhibitor, single point] | 
40 | CCCCCn1c(=N)n(CC(O)COc2ccccc2OC)c2ccccc21 (centres undefined) | inconclusive: 10 µM [inhibitor, partial curve] | 
41 | CCOC(=O)c1c(-c2ccccc2)oc2ccc(NS(=O)(=O)c3ccc(C(C)C)cc3)cc12 |  | inactive: -10.4%
42 | CC(C)(C)N(CC#CCC(O)(c1ccccc1)C1CCCC1)CCO (centres undefined) | inconclusive: 31.6 µM [inhibitor, single point] | 
43 | CCC(=O)NC(=S)Nc1ccc(NC(=O)c2ccc(Br)o2)cc1 |  | inactive: -11.4%
44 | O=C(C1CCCCN1S(=O)(=O)c1ccccc1[N+](=O)[O-])N1CCCC1 (centres undefined) |  | inactive: 0.742%
